Results reported in PubChem BioAssay AID1508642 (National Center for Advancing Translational Sciences (NCATS), 2021).
Among all 43,000 compounds or so, about 200 (0.47%) were called active. Another 12% or so got no clear call; they are omitted. Calls follow the shape of the dose curve; as a rule, active = well fitted cell-killing curve with a large enough effect; inconclusive = small, poorly fitted or top-dose-only effect, or effect the other way; inactive = flat fitted curve, though single readings scatter. This is one part of the list.

Assay: Cell viability qHTS assay in S16 Pmp22-F2sN cells; also: nearly all actives have a fitted effect of over 65% in size
Conditions: S16 Pmp22-F2sN Schwann cells viability, CellTiter-Glo, 24 h; series mostly up to 57.5 µM; activity change, negative = cytotoxicity: at the top concentration
Procedure, shortened: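 Viability was measured by CellTiter-Glo luminescence (15 min, room temperature). This followed 24 h at 37 °C of compound exposure (23 nL pin transfer) in S16 Pmp22-F2sN Schwann cells, 500-1,000 per well.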
% is scaled to controls: 0 for no effect and ±100 for the full control effect.

Structure (SMILES) | activity change, negative = cytotoxicity
O=C(CN1C(=O)COc2ccc(S(=O)(=O)N3CCOCC3)cc21)N1CCN(c2ccccc2)CC1 | inactive: 11.3%
COCCCNC(=O)c1ccc2c(=O)n(Cc3ccc(OC)cc3)c(=O)[nH]c2c1 | inactive: 0.957%
COc1ccc(CNC(=O)CN(c2cc(C)cc(C)c2)S(=O)(=O)c2c(C)[nH]c(=O)[nH]c2=O)cc1 | inactive: 8.17%
O=C(COc1ccccc1)N(Cc1cccnc1)c1nc2ccc(F)cc2s1 | inactive: -23.6%
CCOc1cc(-c2nc(-c3ccc(Br)cc3)no2)cc(OCC)c1OCC | inactive: -4.91%
COc1ccc(-c2cc(C(F)(F)F)n3nc(C(=O)NCC45CC6CC(CC(C6)C4)C5)cc3n2)cc1 | inactive: 6.17%
Cc1cccc(CSc2nc3c(c(=O)[nH]2)C(c2cccc(O)c2)CC(=O)N3)c1 (stereo not drawn) | inactive: -15%
Cc1ccc(S(=O)(=O)C(CNC(=O)c2ccccc2F)c2cccs2)cc1 (stereo not drawn) | inactive: -1.89%
CCOC(=O)c1c(NC(=O)c2cc(C(C)C)on2)sc(C)c1C | inactive: 4.59%
COc1ccc(C2=C(C)C(=O)N(Cc3ccc(C(=O)NCc4ccc(C)cc4)cc3)S2(=O)=O)cc1 | inactive: 0.794%
Cc1cccc(CN2CCN(CC(=O)NCc3ccc(Cl)cc3)C2=O)c1 | inactive: -0.956%
COc1ccc(CCNC(=O)C2CCCN(c3nc4c(C)cc(C)cc4s3)C2)cc1OC (stereo not drawn) | inactive: 1.7%
Cc1nc(-c2ccc(C)c(S(=O)(=O)N3CCC(C(=O)NCc4ccc(Cl)cc4)CC3)c2)no1 | inactive: -1.29%
CCc1ccc2oc(C(=O)Nc3nonc3CC)c(C)c2c1 | inactive: -17.8%
COc1ccc(-n2ncc(C(=O)N3CCc4ccccc4C3)c2C2CCN(C(=O)OC(C)(C)C)CC2)cc1 | inactive: 0.0073%
Cc1oc2ncn(C)c(=O)c2c1C(=O)NCCCN1CCCC(C)C1 (stereo not drawn) | inactive: -1.72%
O=C(Nc1ccc(Br)cc1F)c1ncoc1-c1ccco1 | inactive: 2.15%
O=C(CSc1nccn1Cc1ccc(Cl)cc1)Nc1ccc2c(c1)OCCO2 | inactive: 3.14%
COc1cccc(C(c2c(O)cc(C)n(Cc3ccco3)c2=O)N2CCN(c3ccccc3)CC2)c1 (stereo not drawn) | inactive: 4.75%
COc1cc(Cl)c(C)cc1NC(=O)Cn1ncc2c([nH]c3ccccc32)c1=O | inactive: 2.17%
COC(=O)c1cc2sccc2n1Cc1nc(-c2ccc(Cl)cc2)oc1C | inactive: 2.54%
CCc1ccccc1NC(=O)c1ccc2c(c1)N(Cc1cc(C)ccc1C)C(=O)c1ccccc1S2(=O)=O | inactive: -0.169%
CCOCCCn1c(SCC(=O)Nc2ccc(C)cc2)nc2ccccc2c1=O | inactive: -7.13%
COc1ccc(CNC(=O)C(C)n2ccc3cc(S(=O)(=O)N4CCCC4)ccc32)cc1OC (stereo not drawn) | inactive: -5.77%

Structure (SMILES) | activity change, negative = cytotoxicity
Cc1cc(C)c(NC(=O)C2CCN(c3nnc(C)c4c(C)n(-c5ccccc5)nc34)CC2)c(C)c1 | inactive: -1.58%
O=C(NCc1ccc(F)cc1)c1c(O)nc2ccccn2c1=O | inactive: 1.81%
Cc1cc(Nc2cccc(C(F)(F)F)c2)nc2ccc(NC(=O)c3ccc(=O)[nH]c3)cc12 | inactive: -0.46%
CCCCOc1cccc(NC(=O)CSc2nnc(C)s2)c1 | inactive: 0.0468%
CN(Cc1ccccc1)c1ncnc2onc(-c3ccc(F)cc3)c12 | inactive: -0.0838%
O=C(COc1ccccc1)Nc1nnc(S(=O)(=O)N2CCCC2)s1 | inactive: 3.99%
O=C(Nc1ccc2oc(-c3ccc4ccccc4c3)nc2c1)c1ccccc1F | inactive: -3.43%
O=C(OCC1CCCO1)c1ccc2c(c1)N(Cc1ccccc1Cl)C(=O)c1ccccc1S2(=O)=O (stereo not drawn) | inactive: 6.08%
COc1ccccc1NC(=O)C(Cc1ccccc1)NS(=O)(=O)c1ccc2c(c1)c(=O)n(C)c(=O)n2C (stereo not drawn) | inactive: 13%
CCOc1ccc(-n2c(=O)c3c4c(sc3n(CC(=O)Nc3cccc(C(F)(F)F)c3)c2=O)CCCCC4)cc1 | inactive: 1.75%
CC(NC(=O)CCNS(=O)(=O)c1cccc2nsnc12)c1ccccc1 (stereo not drawn) | inactive: 8.62%
Cc1ccc2c(=O)cc(CSCC(=O)Nc3nnc(C)s3)[nH]c2c1 | inactive: -4.55%
COc1ccc(Br)cc1C1Sc2ccccc2NC2=C1C(=O)c1ccccc12 (stereo not drawn) | inactive: 3.27%
COc1ccc(OC)c(NC(=O)CSc2nc3ccccc3nc2N2CCCCC2)c1 | inactive: -6.92%
COc1ccc(NC(=O)COc2ccc(S(=O)(=O)NC3CCCCC3)cc2)cc1OC | inactive: 20.5%
CCCC(=O)OCc1cnc(C)c2oc(=O)c(C(=O)Nc3ccccc3)cc12 | inactive: -1.61%
COc1ccc(NC(=O)C2CCC(CNS(=O)(=O)c3ccc(Br)s3)CC2)cc1OC (stereo not drawn) | inactive: 17.5%
CCCCN(C)C(=O)C1CCC(CNS(=O)(=O)c2ccc(Cl)cc2)CC1 (stereo not drawn) | inactive: -11.3%
Cc1ccc(-c2nc3c(c(SCC(=O)Nc4ccccc4Cl)n2)Cc2c(CO)cnc(C)c2O3)cc1 | inactive: -7.28%
CCOC(=O)c1c(S(=O)(=O)NCC(=O)NCc2cccc(C)c2)c(C)n(C)c1C | inactive: 7.21%
Nc1c(C(=O)Nc2ccc(C(=O)O)cc2)sc2nc3c(cc12)CCCC3 | inactive: 2.67%
COc1ccc(CCNC(=O)CSc2nc(-c3ccc(F)cc3)cc(C(F)(F)F)n2)cc1OC | inactive: 2.82%
Cc1cccc(C(=O)Nc2nnc(S(=O)(=O)N(C)Cc3ccco3)s2)c1 | inactive: 1.1%
Cc1ccc(NC(=O)CN2C(=O)C3(SCC(=O)N3c3cccc(Cl)c3)c3ccccc32)cc1C (stereo not drawn) | inactive: -6.86%
